From the supplement of paper PMC10126150 come the findings set out here.

Sequences with one replicate were seen in a single cluster, so their values are uncertain.
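Note: ATP exposure 15 min at 22 °C before imaging.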

The test system of this data set is ATP. Description: switch fluorescence ratio, 500 uM ATP over buffer (Cy3 cluster intensity, sum of 5 cycles each) (fold (ratio)); higher = stronger signal-on switching upon ATP binding; sequences stand for … in TCGTCGGCAGCGTCAGATGTGTATAAGAGACAGTTTTTTTTTTTTTTTTTTTTTTTTT…TC. The settings on record: aptamer strand: ATP DNA aptamer (quencher-CACCTGGGGGAGTATTGCGGAGGAAGG + anchor), 100 nM annealed; ATP concentration: 500 uM; one replicate. The method in brief:
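Clusters with intensities outside 100-1000 RFU were excluded. The remaining Cy3-labelled switching-strand clusters on a modified Illumina MiSeq flow-cell had been annealed to 100 nM quencher-labelled ATP aptamer and imaged in selection buffer, then after 15 min with 500 uM ATP at 22 °C, for five cycles separated by NaOH stripping and re-annealing. The fluorescence ratio, averaged per switch-domain sequence, is each cluster's summed target-cycle Cy3 intensity over its summed buffer-cycle Cy3 intensity.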
CTGGACTTCA: the switch fluorescence ratio was found to be 1.03.

With ATCATGCGC, the switch fluorescence ratio worked out at 0.992.

Take CCAGGACTCT: the switch fluorescence ratio came out at 0.999.

As for GACATCGCGC, the switch fluorescence ratio came to 1.17.

For the sequence CGAATCAATA, the switch fluorescence ratio worked out at 1.9.

TATGGTTGGA: the switch fluorescence ratio came to 0.983.

Take AATGAAGGA: the switch fluorescence ratio was 1.01.

In the case of GCCATTAACA, the switch fluorescence ratio was found to be 1.02.

As for GGCATGAGTT, the switch fluorescence ratio is 1.03.

Turning to AGATGGTATG, the switch fluorescence ratio is 0.941.

With TCAAAGCCGG, the switch fluorescence ratio turned out to be 1.

Take TGACTGAAGT: the switch fluorescence ratio is 0.94.

For GTTGGCGTTA, the switch fluorescence ratio was found to be 0.981.

With TAGTTACGC, the switch fluorescence ratio amounted to 0.987.

On to GTGCTCACAG, for which the switch fluorescence ratio was determined as 0.995.

Turning to GGTGAAGCGC, the switch fluorescence ratio turned out to be 0.992.

With TTATAAAATA, the switch fluorescence ratio is 1.03.

For GGTATGTACT, the switch fluorescence ratio was 1.02.

In the case of CCGCTCTTGA, the switch fluorescence ratio stood at 1.4.

With TCACAATAAG, the switch fluorescence ratio stood at 1.03.

AAGAGAAGAA: the switch fluorescence ratio is 1.03.

On to ATGCTTCAGC, for which the switch fluorescence ratio amounted to 0.992.

For TTTTGACGCA, the switch fluorescence ratio stood at 1.63.

ATTTGCACCT: the switch fluorescence ratio was 1.19.

Turning to CTAGTCTCCT, the switch fluorescence ratio is 1.07.

With TTTTCGACAG, the switch fluorescence ratio was determined as 1.

In the case of CGTAAGTAGT, the switch fluorescence ratio worked out at 0.991.

With CCAACGGATG, the switch fluorescence ratio is 1.06.

Take ACTTGTAAAA: the switch fluorescence ratio was 1.04.

Consider CGTGCTACCT, for which the switch fluorescence ratio was determined as 1.03.

CACGAATATT: the switch fluorescence ratio amounted to 1.04.

Turning to TACTAGCATG, the switch fluorescence ratio was found to be 0.973.

With AGCGAGAGAT, the switch fluorescence ratio is 1.01.

For GCATGTAGTA, the switch fluorescence ratio was 1.02.

With TACTCGGCGC, the switch fluorescence ratio came to 1.36.

Regarding ATGACGTTAA, the switch fluorescence ratio was found to be 1.06.

For the sequence GCACTATGTC, the switch fluorescence ratio came to 1.13.

For GGGTACCGGC, the switch fluorescence ratio turned out to be 1.03.

With AAAACACATT, the switch fluorescence ratio turned out to be 1.06.

Take TGTTGTAACT: the switch fluorescence ratio was 1.04.

As for ATGCATTTAA, the switch fluorescence ratio is 0.979.

As for TTGACCTCGT, the switch fluorescence ratio was found to be 0.996.

CTGGCAAATG: the switch fluorescence ratio was determined as 1.06.

CTCCAAGGCC: the switch fluorescence ratio is 1.08.

As for CTGGTATTCG, the switch fluorescence ratio is 0.94.

Take TTGAGATGAG: the switch fluorescence ratio is 0.978.

As to GACTATACAC, the switch fluorescence ratio was 1.41.

CCGAGTGGAT: the switch fluorescence ratio was found to be 1.26.

TAACTTGTTT: the switch fluorescence ratio was found to be 1.01.

For GCCGTGGGAA, the switch fluorescence ratio worked out at 1.

Regarding CTGTCGGATG, the switch fluorescence ratio was found to be 0.981.

Regarding CGAAGTTCCT, the switch fluorescence ratio worked out at 0.977.

As to CCACTGCAGC, the switch fluorescence ratio is 3.9.

Regarding TCGTAAATCG, the switch fluorescence ratio amounted to 1.08.

Consider GAGGAAACTT, for which the switch fluorescence ratio turned out to be 1.08.

Take ACGCTTGGAC: the switch fluorescence ratio was determined as 1.65.

As for GATGTGCTCC, the switch fluorescence ratio was found to be 1.09.

Take TCTTCCTGAC: the switch fluorescence ratio was 2.15.

Consider TGGTCGAAAC, for which the switch fluorescence ratio worked out at 1.02.

As for CCAAGGCAC, the switch fluorescence ratio was 1.43.

Take CGGACGCGGC: the switch fluorescence ratio amounted to 1.73.

Take CGATTGTGG: the switch fluorescence ratio was determined as 0.994.

In the case of GGGGCTCAGT, the switch fluorescence ratio amounted to 0.942.

As for TTGCTGTCAC, the switch fluorescence ratio is 1.01.

As to ACTGGCTAGG, the switch fluorescence ratio was 1.01.

Regarding GCTCGAAATT, the switch fluorescence ratio worked out at 1.03.

Regarding TGTTACTTAC, the switch fluorescence ratio was 1.26.

For GCAGGGAGA, the switch fluorescence ratio was found to be 1.02.

CTTAATTCGC: the switch fluorescence ratio worked out at 1.11.

Regarding CATAGAATCT, the switch fluorescence ratio amounted to 1.01.

As to TCAGTTGCG, the switch fluorescence ratio was 1.01.

As for ACTCTACGGC, the switch fluorescence ratio was determined as 1.19.

With CTCACTTTGA, the switch fluorescence ratio came out at 0.983.

Take GTTGACATG: the switch fluorescence ratio was 0.905.

For the sequence ATCATAGCTT, the switch fluorescence ratio came to 1.06.

CATTTAGTC: the switch fluorescence ratio was found to be 0.999.

On to TGGATCTTGA, for which the switch fluorescence ratio was found to be 0.966.

For TGTTCATGTG, the switch fluorescence ratio is 0.995.
